# Test results reported in PMC5700166.
# This is a selection; strong and weak results do not stand in their true shares. For some of these results: The list includes weakly bound sequences.
# Target: T1, GST-Nv-NF-kB (Cys allele) (UniProt E5G601)
# T1 sequence: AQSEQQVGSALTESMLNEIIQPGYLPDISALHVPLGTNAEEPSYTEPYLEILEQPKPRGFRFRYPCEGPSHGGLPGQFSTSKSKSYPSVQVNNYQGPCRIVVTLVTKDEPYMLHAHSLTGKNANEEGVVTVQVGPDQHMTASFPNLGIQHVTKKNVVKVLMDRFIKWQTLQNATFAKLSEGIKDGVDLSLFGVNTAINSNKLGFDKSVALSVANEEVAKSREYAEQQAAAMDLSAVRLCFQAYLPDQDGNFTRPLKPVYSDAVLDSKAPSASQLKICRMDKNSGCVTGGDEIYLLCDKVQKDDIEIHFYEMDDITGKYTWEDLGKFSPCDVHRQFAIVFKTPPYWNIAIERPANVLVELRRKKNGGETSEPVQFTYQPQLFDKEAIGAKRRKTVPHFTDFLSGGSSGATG
# Assay: protein-binding microarray (PBM)
# Conditions: PBM: ~300 nM protein, 6 mM HEPES pH 7.8, 80 mM KCl, 0.5 mM EDTA, 0.5 mM EGTA, 6% glycerol, 35 ng/ul poly-dIdC, 1% milk, 1 h, room temperature; high values mean tight binding; double strand, one strand shown
row,Sequence,binding signal [z-score]
1,CCGATTAACATCAGGGGAGACAATGATGTTAATCGGGTCTTGATTCGCTTGACGCTGCTG,3.18
2,CCGATTAACATCAGGGAATCCCATGATGTTAATCGGGTCTTGATTCGCTTGACGCTGCTG,4.92
3,CCGATTAACATCAGGGGGTGGAATGATGTTAATCGGGTCTTGATTCGCTTGACGCTGCTG,3.19
4,CCGATTAACATCAGGGGGTTCACTGATGTTAATCGGGTCTTGATTCGCTTGACGCTGCTG,4.09
5,CCGATTAACATCATCCCGGGAAATGATGTTAATCGGGTCTTGATTCGCTTGACGCTGCTG,2.94
6,CCGATTAACATCACGTTTTCCCCTGATGTTAATCGGGTCTTGATTCGCTTGACGCTGCTG,7.87
7,CCGATTAACATCATTTTGGGGACTGATGTTAATCGGGTCTTGATTCGCTTGACGCTGCTG,3.66
8,CCGATTAACATCACGGATTTCCCTGATGTTAATCGGGTCTTGATTCGCTTGACGCTGCTG,5.2
9,CCGATTAACATCAGGGAACCCCATGATGTTAATCGGGTCTTGATTCGCTTGACGCTGCTG,2.07
10,CCGATTAACATCAGGGAAGTACCTGATGTTAATCGGGTCTTGATTCGCTTGACGCTGCTG,7.36
11,CCGATTAACATCAGGGGAACCACTGATGTTAATCGGGTCTTGATTCGCTTGACGCTGCTG,6.92
12,CCGATTAACATCAGCACGGGAAATGATGTTAATCGGGTCTTGATTCGCTTGACGCTGCTG,2.98

# Target: T2, GST-Co-NF-kB (UniProt F1ARL5)
# T2 sequence: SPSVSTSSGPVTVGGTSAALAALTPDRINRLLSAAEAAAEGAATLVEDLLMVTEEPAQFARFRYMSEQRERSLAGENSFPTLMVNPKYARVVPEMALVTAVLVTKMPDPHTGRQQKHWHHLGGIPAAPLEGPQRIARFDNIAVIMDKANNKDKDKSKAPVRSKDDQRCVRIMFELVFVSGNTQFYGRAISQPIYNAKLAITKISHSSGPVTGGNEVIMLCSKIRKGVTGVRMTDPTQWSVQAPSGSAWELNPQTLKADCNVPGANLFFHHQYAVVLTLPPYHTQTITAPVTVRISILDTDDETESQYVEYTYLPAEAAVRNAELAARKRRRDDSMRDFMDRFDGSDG
# Assay: protein-binding microarray (PBM)
# Conditions: PBM: ~300 nM protein, 6 mM HEPES pH 7.8, 80 mM KCl, 0.5 mM EDTA, 0.5 mM EGTA, 6% glycerol, 35 ng/ul poly-dIdC, 1% milk, 1 h, room temperature; Ap Aiptasia and Nv Nematostella (sea anemones) / Co Capsaspora / Aq Amphimedon (sponge) / Dm Drosophila / Hu human; RHD is the Rel homology domain; high values mean tight binding; most listed sequences are background and not binding sites; double strand, one strand shown
row,Sequence,binding signal [z-score]
1,CCGATTAACATCAAACTTCCCCTTGATGTTAATCGGGTCTTGATTCGCTTGACGCTGCTG,5.46
2,CCGATTAACATCACATATCCCCCTGATGTTAATCGGGTCTTGATTCGCTTGACGCTGCTG,5.73
3,CCGATTAACATCAAAAAGGGAAATGATGTTAATCGGGTCTTGATTCGCTTGACGCTGCTG,1.33
4,CCGATTAACATCAGGGGGAACACTGATGTTAATCGGGTCTTGATTCGCTTGACGCTGCTG,8.64
5,CCGATTAACATCAGGGGGTGCACTGATGTTAATCGGGTCTTGATTCGCTTGACGCTGCTG,2.55
6,CCGATTAACATCAAGGGAAATCCTGATGTTAATCGGGTCTTGATTCGCTTGACGCTGCTG,3.33
7,CCGATTAACATCATTAGGGTATTTGATGTTAATCGGGTCTTGATTCGCTTGACGCTGCTG,0.747
8,CCGATTAACATCAACCAATCCCCTGATGTTAATCGGGTCTTGATTCGCTTGACGCTGCTG,2.16
9,CCGATTAACATCAGAAAATTCCCTGATGTTAATCGGGTCTTGATTCGCTTGACGCTGCTG,4.76
10,CCGATTAACATCAGAGAAGTCCCTGATGTTAATCGGGTCTTGATTCGCTTGACGCTGCTG,0.312
11,CCGATTAACATCAGGGGGGGCTATGATGTTAATCGGGTCTTGATTCGCTTGACGCTGCTG,5.06
12,CCGATTAACATCAGGGGCTTACCTGATGTTAATCGGGTCTTGATTCGCTTGACGCTGCTG,1.88
13,CCGATTAACATCAGGGATATTTATGATGTTAATCGGGTCTTGATTCGCTTGACGCTGCTG,1.68
14,CCGATTAACATCAGGGGGGAGACTGATGTTAATCGGGTCTTGATTCGCTTGACGCTGCTG,6.95
15,CCGATTAACATCAGGATTACCCCTGATGTTAATCGGGTCTTGATTCGCTTGACGCTGCTG,3.97
16,CCGATTAACATCAGAAATATCCCTGATGTTAATCGGGTCTTGATTCGCTTGACGCTGCTG,1.62
17,CCGATTAACATCAAATATTCCCATGATGTTAATCGGGTCTTGATTCGCTTGACGCTGCTG,3.51
18,CCGATTAACATCAGGTAATCACCTGATGTTAATCGGGTCTTGATTCGCTTGACGCTGCTG,-1.08
19,CCGATTAACATCAGAAGTGGGAATGATGTTAATCGGGTCTTGATTCGCTTGACGCTGCTG,2.78
20,CCGATTAACATCACCAAACCCCCTGATGTTAATCGGGTCTTGATTCGCTTGACGCTGCTG,2.03
21,CCGATTAACATCACGAATTTCCCTGATGTTAATCGGGTCTTGATTCGCTTGACGCTGCTG,4.33
22,CCGATTAACATCAGAAATTCCCATGATGTTAATCGGGTCTTGATTCGCTTGACGCTGCTG,4.07
23,CCGATTAACATCAGGCATTCCCATGATGTTAATCGGGTCTTGATTCGCTTGACGCTGCTG,1.54
24,CCGATTAACATCAAGGATTCCCGTGATGTTAATCGGGTCTTGATTCGCTTGACGCTGCTG,3.1
25,CCGATTAACATCAAATTCCCTTATGATGTTAATCGGGTCTTGATTCGCTTGACGCTGCTG,2.16
